The list shows a part of the results. The energies were worked out here from pooled read counts, against the library average; single values are noisy.
Molecular target: T1, Pho4 (S. cerevisiae) (UniProt P07270)
T1 sequence: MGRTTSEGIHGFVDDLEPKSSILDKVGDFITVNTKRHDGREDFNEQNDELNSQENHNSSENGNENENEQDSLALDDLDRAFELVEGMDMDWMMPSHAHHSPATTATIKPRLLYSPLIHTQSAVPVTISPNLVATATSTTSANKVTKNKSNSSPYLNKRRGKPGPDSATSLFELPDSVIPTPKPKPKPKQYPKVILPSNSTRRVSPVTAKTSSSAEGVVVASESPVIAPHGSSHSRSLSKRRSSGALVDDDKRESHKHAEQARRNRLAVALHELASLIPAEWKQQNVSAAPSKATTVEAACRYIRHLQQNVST
Test: relative binding free energy (BET-seq); higher = weaker binding
Details: reference: library average

Sequence	relative binding free energy [kcal/mol]
TTATTCACGTGTTTTA	0.18
CTGTACACGTGTATGG	-0.11
TGGAGCACGTGACCGT	0.15
CGTAACACGTGCGTGG	-0.13
TCGTACACGTGGGGGC	-0.14
AAGGTCACGTGCAGGT	-0.03
GGGAGCACGTGATAGT	0.12
CATGGCACGTGGGCGT	-0.36
GTTAACACGTGGCGTT	-0.03
TTGTGCACGTGGCGGA	-0.08
GTAGTCACGTGATTGG	0.22
GATATCACGTGGTGAT	0.24
TGCATCACGTGAATGG	0.22
TTAGTCACGTGAATAG	0.16
TCTGTCACGTGACGGG	0.15
TCGGGCACGTGGCGTC	-0.13
ATATGCACGTGGTTCG	-0.13
GAGGTCACGTGGAGTG	0.27
TGCTGCACGTGGTGCG	-0.19
GTAGTCACGTGTATCG	0.02
GATATCACGTGTTAGT	0.24
TAAGCCACGTGGGGGA	-0.17
ATTAGCACGTGGGTAT	-0.2

Sequence	relative binding free energy [kcal/mol]
TTCGGCACGTGTATAG	0
AATGACACGTGTAGTA	0.11
TGGGGCACGTGGGGGG	-0.14
TGGTTCACGTGATACT	0.32
TATTGCACGTGTTTTG	0.01
GTTGACACGTGTTAGC	0.17
TGGCTCACGTGTAGGC	0.31
TATGACACGTGCTGGT	-0.1
CTTTGCACGTGGGGGC	-0.21
AATTTCACGTGGCTTG	0.33
TAGGTCACGTGTAATG	0.14
GTCTACACGTGTGAGT	0.28
GGAATCACGTGTGATG	0.18
CGGGTCACGTGGTGTA	0.04
ATTACCACGTGGGGTA	-0.26
GAAGGCACGTGGTTGG	-0.02
ACTGACACGTGGGGTG	-0.14
ATTAGCACGTGTCGGA	0.03
GGTGTCACGTGGCGTA	0.02
TAGCGCACGTGAGGGG	0.11
GTCGGCACGTGAGGAG	0.1
GGTGCCACGTGAATAT	0.29
CGCGCCACGTGTGGTG	-0.02

Sequence	relative binding free energy [kcal/mol]
GGTCCCACGTGTGTGT	-0.12
ACGTACACGTGATGTT	0.13
ATTCGCACGTGGTGGA	-0.02
CAGTTCACGTGGTGAT	0.12
TTAGACACGTGCTGGA	-0.05
GTGTTCACGTGGATGT	0.31
GTGCACACGTGTTGTT	0.1
AGAATCACGTGTACGT	0.32
TCTAGCACGTGTGTGA	-0.13
AAAAACACGTGTTGTG	0.09
GTGGACACGTGAGTCT	0.26
TTGTTCACGTGGGAGC	0.2
TGAATCACGTGGAGCT	0.17
ATAGTCACGTGTGGCA	0.12
TTTTGCACGTGAGGCT	0.26
AACGACACGTGTTGGT	0.08
GAGTTCACGTGCGGGT	0.23
CGAGTCACGTGGGTTC	0.06
AGGCGCACGTGGGCTT	-0.29
TTTTACACGTGGTAGT	0.06
AGTAGCACGTGGTGTC	-0.24
ATCGGCACGTGTTAGA	0.04
CAGGTCACGTGTTGGT	0.16

Sequence	relative binding free energy [kcal/mol]
CCTTTCACGTGATGTG	0.32
ACCAGCACGTGGGTGT	-0.1
ATGCGCACGTGTTAGA	-0.07
TGCAACACGTGGATGG	-0.03
ACGTGCACGTGGCGTG	-0.33
TGGGGCACGTGTACCT	-0.01
AGGGTCACGTGCTATA	0.13
AGGTTCACGTGGTTTC	0.27
TTGAGCACGTGAATGA	0.12
AGTTTCACGTGGGTGG	0.15
TTGTACACGTGGGAAT	0.03
TGCGGCACGTGGAGGT	-0.1
ATGATCACGTGGTAAT	0.06
TTTATCACGTGATCTT	0.19
AAGATCACGTGGTGGA	0.1
GGGGTCACGTGGGTGC	0.1
TTGCGCACGTGTGAGG	-0.05
TGGGTCACGTGCTATG	0.1
GGTGGCACGTGGATGG	0.04
TAGTACACGTGGTTTG	0.08
AACGGCACGTGGTAGA	-0.07
CGGATCACGTGCAGGG	0.09
ATGGTCACGTGGGAAC	0.03

Sequence	relative binding free energy [kcal/mol]
CTGTGCACGTGGTGGC	-0.11
TATTTCACGTGTATAG	0.15
GGTTACACGTGGTACG	-0.03
CTCGGCACGTGGATGG	-0.14
AGTATCACGTGTTTTG	0.16
TAGTGCACGTGGGACA	-0.1
CGTGACACGTGAGGCG	0.19
AATGTCACGTGATGTT	0.21
GGATTCACGTGTTGTT	0.32
GGAATCACGTGGGAAG	0.04
GAGGGCACGTGGTAGC	-0.08
ACAGTCACGTGGGGGG	-0.13
CTATACACGTGTGAGT	0.24
GTTGACACGTGTATCA	0.22
AGGAGCACGTGGTTAG	-0.15
TAGGGCACGTGGTCGC	-0.25
TGTTTCACGTGCATTA	0.34
TAGTTCACGTGCATGT	0.16
GGATTCACGTGCTGTG	0.19
TAGTCCACGTGGAGTT	0.17
TCGTTCACGTGTAGAG	0.24
ATAATCACGTGCATGT	0.06
CAAATCACGTGGTGTT	0.04
